Source: the CheMixHub ionic liquid set
Further values from the same series stand in other lists.

Assay: xn = mol fraction of the nth substance listed
Settings: 100 kPa

C[C@H](N)C(=O)[O-].C[N+](C)(C)CCO + CCCO
Settings | viscosity [mPa·s]
298.81 K, x1 = 0.9049 | 1069
299.98 K, x1 = 0.0997 | 5.9
299.98 K, x1 = 0.2007 | 15.4
299.98 K, x1 = 0.2998 | 31.7
299.98 K, x1 = 0.3915 | 63
299.98 K, x1 = 0.506 | 130
299.98 K, x1 = 0.6047 | 237
299.98 K, x1 = 0.6939 | 381
299.98 K, x1 = 0.7915 | 590
299.98 K, x1 = 0.9049 | 970
300.27 K, x1 = 1 | 1538
300.61 K, x1 = 1 | 1681
301.15 K, x1 = 0.0997 | 5.7
301.16 K, x1 = 0.2007 | 14.8
301.16 K, x1 = 0.2998 | 30.2
301.16 K, x1 = 0.3915 | 59
301.16 K, x1 = 0.506 | 122
301.16 K, x1 = 0.6047 | 219
301.16 K, x1 = 0.6939 | 352
301.16 K, x1 = 0.7915 | 540
301.16 K, x1 = 0.9049 | 890
302.33 K, x1 = 0.0997 | 5.5
302.33 K, x1 = 0.2007 | 14.1
302.33 K, x1 = 0.2998 | 28.6
302.33 K, x1 = 0.3915 | 56
302.33 K, x1 = 0.506 | 114
302.33 K, x1 = 0.6047 | 202
302.33 K, x1 = 0.6939 | 324
302.33 K, x1 = 0.7915 | 490
302.33 K, x1 = 0.9049 | 810
302.34 K, x1 = 1 | 1310
302.66 K, x1 = 1 | 1421
303.51 K, x1 = 0.0997 | 5.4
303.51 K, x1 = 0.2007 | 13.5
303.51 K, x1 = 0.2998 | 27.4
303.51 K, x1 = 0.3915 | 52
303.51 K, x1 = 0.506 | 107
303.51 K, x1 = 0.6047 | 187
303.51 K, x1 = 0.6939 | 302
303.51 K, x1 = 0.7915 | 460
303.51 K, x1 = 0.9049 | 740
304.41 K, x1 = 1 | 1119
304.68 K, x1 = 0.0997 | 5.3
304.68 K, x1 = 0.2007 | 12.9
304.68 K, x1 = 0.2998 | 26.1
304.68 K, x1 = 0.3915 | 49
304.68 K, x1 = 0.506 | 101
304.68 K, x1 = 0.9049 | 680
304.69 K, x1 = 0.6047 | 173
304.69 K, x1 = 0.6939 | 280
304.69 K, x1 = 0.7915 | 420
304.72 K, x1 = 1 | 1206
305.86 K, x1 = 0.0997 | 5.1
305.86 K, x1 = 0.2007 | 12.3
305.86 K, x1 = 0.2998 | 24.7
305.86 K, x1 = 0.3915 | 46
305.86 K, x1 = 0.506 | 94
305.86 K, x1 = 0.6047 | 159
305.86 K, x1 = 0.6939 | 260
305.86 K, x1 = 0.7915 | 389
305.86 K, x1 = 0.9049 | 620
306.48 K, x1 = 1 | 960
306.78 K, x1 = 1 | 1030
307.04 K, x1 = 0.0997 | 4.9
307.04 K, x1 = 0.2007 | 11.8
307.04 K, x1 = 0.2998 | 23.6
307.04 K, x1 = 0.3915 | 44
307.04 K, x1 = 0.506 | 89
307.04 K, x1 = 0.6047 | 148
307.04 K, x1 = 0.6939 | 243
307.04 K, x1 = 0.7915 | 362
307.04 K, x1 = 0.9049 | 570
308.21 K, x1 = 0.0997 | 4.8
308.21 K, x1 = 0.2007 | 11.2
308.21 K, x1 = 0.2998 | 22.5
308.21 K, x1 = 0.3915 | 41.1
308.21 K, x1 = 0.506 | 84
308.21 K, x1 = 0.6047 | 137
308.21 K, x1 = 0.9049 | 530
308.22 K, x1 = 0.6939 | 228
308.22 K, x1 = 0.7915 | 336
308.54 K, x1 = 1 | 830
308.84 K, x1 = 1 | 880
310.61 K, x1 = 1 | 720
310.9 K, x1 = 1 | 760
312.67 K, x1 = 1 | 630
312.95 K, x1 = 1 | 660
314.74 K, x1 = 1 | 550
315.01 K, x1 = 1 | 570
316.82 K, x1 = 1 | 480
317.07 K, x1 = 1 | 500
318.91 K, x1 = 1 | 420
319.13 K, x1 = 1 | 440
321.04 K, x1 = 1 | 374
321.19 K, x1 = 1 | 387
323.2 K, x1 = 1 | 337
323.25 K, x1 = 1 | 342

C[C@H](N)C(=O)[O-].C[N+](C)(C)CCO + CCO
Settings | viscosity [mPa·s]
298.81 K, x1 = 0.8027 | 730
298.81 K, x1 = 0.894 | 1125
299.98 K, x1 = 0.1013 | 3.69
299.98 K, x1 = 0.2012 | 11.6
299.98 K, x1 = 0.2903 | 27.9
299.98 K, x1 = 0.3782 | 58
299.98 K, x1 = 0.5527 | 176
299.98 K, x1 = 0.6071 | 243
299.98 K, x1 = 0.7056 | 440
299.98 K, x1 = 0.8027 | 670
299.98 K, x1 = 0.894 | 1024
300.27 K, x1 = 1 | 1538
300.61 K, x1 = 1 | 1681
301.16 K, x1 = 0.1013 | 3.55
301.16 K, x1 = 0.2012 | 11
301.16 K, x1 = 0.2903 | 26.7
301.16 K, x1 = 0.3782 | 56
301.16 K, x1 = 0.5527 | 165
301.16 K, x1 = 0.6071 | 224
301.16 K, x1 = 0.7056 | 403
301.16 K, x1 = 0.8027 | 610
301.16 K, x1 = 0.894 | 930
302.33 K, x1 = 0.1013 | 3.44
302.33 K, x1 = 0.2012 | 10.6
302.33 K, x1 = 0.2903 | 25.8
302.33 K, x1 = 0.3782 | 55
302.33 K, x1 = 0.5527 | 157
302.33 K, x1 = 0.6071 | 207
302.33 K, x1 = 0.7056 | 373
302.33 K, x1 = 0.8027 | 570
302.33 K, x1 = 0.894 | 850
302.34 K, x1 = 1 | 1310
302.66 K, x1 = 1 | 1421
303.51 K, x1 = 0.1013 | 3.32
303.51 K, x1 = 0.2012 | 10.2
303.51 K, x1 = 0.2903 | 25
303.51 K, x1 = 0.3782 | 52
303.51 K, x1 = 0.5527 | 149
303.51 K, x1 = 0.6071 | 192
303.51 K, x1 = 0.7056 | 347
303.51 K, x1 = 0.8027 | 520
303.51 K, x1 = 0.894 | 780
304.41 K, x1 = 1 | 1119
304.69 K, x1 = 0.1013 | 3.22
304.69 K, x1 = 0.2012 | 9.9
304.69 K, x1 = 0.2903 | 24
304.69 K, x1 = 0.3782 | 50
304.69 K, x1 = 0.5527 | 138
304.69 K, x1 = 0.6071 | 181
304.69 K, x1 = 0.7056 | 320
304.69 K, x1 = 0.8027 | 480
304.69 K, x1 = 0.894 | 720
304.72 K, x1 = 1 | 1206
305.86 K, x1 = 0.1013 | 3.12
305.86 K, x1 = 0.2012 | 9.6
305.86 K, x1 = 0.2903 | 23.1
305.86 K, x1 = 0.3782 | 47
305.86 K, x1 = 0.5527 | 129
305.86 K, x1 = 0.6071 | 179
305.86 K, x1 = 0.7056 | 296
305.86 K, x1 = 0.8027 | 440
305.86 K, x1 = 0.894 | 660
306.48 K, x1 = 1 | 960
306.78 K, x1 = 1 | 1030
307.04 K, x1 = 0.1013 | 3.02
307.04 K, x1 = 0.2012 | 9.4
307.04 K, x1 = 0.2903 | 22.6
307.04 K, x1 = 0.3782 | 46
307.04 K, x1 = 0.5527 | 121
307.04 K, x1 = 0.6071 | 170
307.04 K, x1 = 0.7056 | 276
307.04 K, x1 = 0.8027 | 410
307.04 K, x1 = 0.894 | 610
308.21 K, x1 = 0.1013 | 2.93
308.21 K, x1 = 0.5527 | 113
308.21 K, x1 = 0.6071 | 159
308.21 K, x1 = 0.8027 | 379
308.22 K, x1 = 0.2012 | 9.1
308.22 K, x1 = 0.2903 | 22.8
308.22 K, x1 = 0.3782 | 45
308.22 K, x1 = 0.7056 | 256
308.22 K, x1 = 0.894 | 560
308.54 K, x1 = 1 | 830
308.84 K, x1 = 1 | 880
310.61 K, x1 = 1 | 720
310.9 K, x1 = 1 | 760
312.67 K, x1 = 1 | 630
312.95 K, x1 = 1 | 660
314.74 K, x1 = 1 | 550
315.01 K, x1 = 1 | 570
316.82 K, x1 = 1 | 480
317.07 K, x1 = 1 | 500
318.91 K, x1 = 1 | 420
319.13 K, x1 = 1 | 440
321.04 K, x1 = 1 | 374
321.19 K, x1 = 1 | 387
323.2 K, x1 = 1 | 337
323.25 K, x1 = 1 | 342
